The target in assay [1] is human Notch1-Gal4 chimeric receptor on U2OS FlpIn TREx cells (human), P46531. The experiment in a line: cell-based or functional assay.
Assay [2] addresses human Notch2-Gal4 chimeric receptor on U2OS FlpIn TREx cells (human), Q04721. The assay is described as follows: cell-based or functional assay.

This passage reports hN1 (IC50, nM), Jag2-induced Notch1-Gal4 luciferase reporter and hN2, inhibition of Luc activity results from patent US20110286916A1.

Changes are numbered by the printed parent chain.

human Notch2-Gal4 chimeric receptor on U2OS FlpIn TREx cells (human), Q04721, sequence (Q04721 26-2471, change not shown): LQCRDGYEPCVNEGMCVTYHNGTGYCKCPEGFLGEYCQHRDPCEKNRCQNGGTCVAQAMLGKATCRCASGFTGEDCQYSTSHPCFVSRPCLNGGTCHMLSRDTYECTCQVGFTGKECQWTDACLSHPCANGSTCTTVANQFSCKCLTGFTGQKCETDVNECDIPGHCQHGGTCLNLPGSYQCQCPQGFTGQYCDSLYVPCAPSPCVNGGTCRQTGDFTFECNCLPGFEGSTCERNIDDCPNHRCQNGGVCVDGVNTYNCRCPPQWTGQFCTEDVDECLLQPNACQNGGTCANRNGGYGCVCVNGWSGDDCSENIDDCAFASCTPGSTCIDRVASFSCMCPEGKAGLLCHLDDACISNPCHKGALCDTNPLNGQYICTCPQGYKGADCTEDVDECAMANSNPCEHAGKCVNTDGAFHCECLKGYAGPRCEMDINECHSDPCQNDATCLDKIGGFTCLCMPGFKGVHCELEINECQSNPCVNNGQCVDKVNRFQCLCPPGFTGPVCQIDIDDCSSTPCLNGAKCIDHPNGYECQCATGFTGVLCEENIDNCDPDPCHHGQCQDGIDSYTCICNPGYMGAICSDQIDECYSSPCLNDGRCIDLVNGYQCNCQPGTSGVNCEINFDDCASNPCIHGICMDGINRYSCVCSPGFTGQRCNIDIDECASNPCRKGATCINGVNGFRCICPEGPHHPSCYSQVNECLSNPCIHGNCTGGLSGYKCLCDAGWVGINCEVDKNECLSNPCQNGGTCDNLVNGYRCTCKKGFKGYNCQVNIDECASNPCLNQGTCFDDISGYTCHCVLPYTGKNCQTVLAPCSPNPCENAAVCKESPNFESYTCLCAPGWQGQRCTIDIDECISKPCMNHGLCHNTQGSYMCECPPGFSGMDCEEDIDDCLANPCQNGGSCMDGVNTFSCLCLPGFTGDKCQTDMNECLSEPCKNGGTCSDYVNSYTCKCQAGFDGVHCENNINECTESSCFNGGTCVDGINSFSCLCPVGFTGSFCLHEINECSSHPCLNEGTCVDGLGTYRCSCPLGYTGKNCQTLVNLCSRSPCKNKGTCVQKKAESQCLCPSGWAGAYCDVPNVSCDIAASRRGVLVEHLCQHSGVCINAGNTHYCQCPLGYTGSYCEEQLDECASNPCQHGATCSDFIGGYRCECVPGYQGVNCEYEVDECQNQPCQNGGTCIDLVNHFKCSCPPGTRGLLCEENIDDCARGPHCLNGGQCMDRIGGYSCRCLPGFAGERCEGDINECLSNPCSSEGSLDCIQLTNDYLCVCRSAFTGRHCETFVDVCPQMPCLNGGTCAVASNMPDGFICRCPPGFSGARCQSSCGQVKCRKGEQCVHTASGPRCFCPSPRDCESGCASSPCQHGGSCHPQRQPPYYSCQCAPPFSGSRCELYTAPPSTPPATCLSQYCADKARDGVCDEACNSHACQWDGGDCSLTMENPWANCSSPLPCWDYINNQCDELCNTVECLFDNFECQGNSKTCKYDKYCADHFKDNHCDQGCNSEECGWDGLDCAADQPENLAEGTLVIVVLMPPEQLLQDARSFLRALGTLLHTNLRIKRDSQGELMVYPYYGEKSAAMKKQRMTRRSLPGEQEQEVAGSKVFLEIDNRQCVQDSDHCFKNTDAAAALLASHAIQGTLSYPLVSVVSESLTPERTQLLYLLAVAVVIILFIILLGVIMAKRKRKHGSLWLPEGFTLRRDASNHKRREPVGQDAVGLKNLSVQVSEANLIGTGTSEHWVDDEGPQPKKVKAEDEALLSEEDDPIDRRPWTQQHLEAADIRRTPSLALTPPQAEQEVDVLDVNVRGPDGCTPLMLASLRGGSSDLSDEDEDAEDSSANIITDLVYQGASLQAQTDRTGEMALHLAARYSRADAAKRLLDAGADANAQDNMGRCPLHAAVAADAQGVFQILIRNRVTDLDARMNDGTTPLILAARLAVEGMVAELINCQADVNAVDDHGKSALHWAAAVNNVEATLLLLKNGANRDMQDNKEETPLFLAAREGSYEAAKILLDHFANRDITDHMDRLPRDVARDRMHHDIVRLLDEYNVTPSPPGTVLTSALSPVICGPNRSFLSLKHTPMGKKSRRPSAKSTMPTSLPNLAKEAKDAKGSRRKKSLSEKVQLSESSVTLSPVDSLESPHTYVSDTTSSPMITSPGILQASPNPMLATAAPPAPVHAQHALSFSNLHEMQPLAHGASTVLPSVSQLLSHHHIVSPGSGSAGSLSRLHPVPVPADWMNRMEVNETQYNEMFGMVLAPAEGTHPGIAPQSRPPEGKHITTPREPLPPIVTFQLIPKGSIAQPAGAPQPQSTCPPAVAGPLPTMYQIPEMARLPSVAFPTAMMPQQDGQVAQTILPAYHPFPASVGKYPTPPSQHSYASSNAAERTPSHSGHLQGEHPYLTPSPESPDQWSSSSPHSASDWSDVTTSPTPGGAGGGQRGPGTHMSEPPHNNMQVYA

B1: S3-094 (antibody, human IgG1, lambda)
heavy: EVQLVQSGAEVKKPGASVKVSCKASGYNFTGYYMHWVRQAPGQGLEWMGWINPNSGGTNYAQKFQGRVTMTRDTSISTAYMELSRLRSDDTAVYYCATDSFDYWGRGTMVTVSSASTKGPSVFPLAPSSKSTSGGTAALGCLVKDYFPEPVTVSWNSGALTSGVHTFPAVLQSSGLYSLSSVVTVPSSSLGTQTYICNVNHKPSNTKVDKRV[human IgG1 Fc not spelt out]
light: QSVLTQPPSASGTPGQRVTISCSGGSSNIGSNTVTWYQQLPGKAPKLLIYISDQRPSGVPDRFSGSKSGTSASLAIRGLQSEDEADYYCAAWDDSLNGAVFGTGTKVTVLQPKANPTVTLFPPSSEELQANKATLVCLISDFYPGAVTVAWKADGSPVKAGVETTKPSKQSNNKYAASSYLSLTPEQWKSHRSYSCQVTHEGSTVEKTVAPTECS
As for B1, the hN1 (IC50, nM), Jag2-induced Notch1-Gal4 luciferase reporter in assay [1] was determined as 13 nM. The molecule also displayed a hN2, inhibition of Luc activity at [166 nM] Mab in assay [2] of less than 10%.

B2: WC-173 (antibody, human IgG1, lambda)
heavy: B1 heavy with R106Q, M109T
light: QPVLTQPPSASWTPGQRVTISCSGSSSNIGSNTVHWYRQFPGTAPQLLIYSNNQRPSGVPDRFSGSKSGTSASLAIRGLQSEDEADYYCAAWDDSLNGVVFGGGIKLTVLQPKANPTVTLFPPSSEELQANKATLVCLISDFYPGAVTVAWKADGSPVKAGVETTKPSKQSNNKYAASSYLSLTPEQWKSHRSYSCQVTHEGSTVEKTVAPTECS
In assay [1], B2 had a hN1 (IC50, nM), Jag2-induced Notch1-Gal4 luciferase reporter of 21 nM. The molecule further had a hN2, inhibition of Luc activity at [166 nM] Mab in assay [2] of less than 20%.

B3: WC-133 (antibody, human IgG1, lambda)
heavy: [about 100 residues not spelt out][about 120 residues not spelt out][human IgG1 Fc not spelt out]
light: SYELTQPPSASGTPGQRVTISCSGSNSNIGSNTLNWYQQLPGTAPKLLIYSNNQRPSWVPDRFSGSKSGTSASLAISGLQSEDEADYYCAAWDDSLNGLIFGGGTKLTVLQPKANPTVTLFPPSSEELQANKATLVCLISDFYPGAVTVAWKADGSPVKAGVETTKPSKQSNNKYAASSYLSLTPEQWKSHRSYSCQVTHEGSTVEKTVAPTECS
Turning to B3, the hN1 (IC50, nM), Jag2-induced Notch1-Gal4 luciferase reporter in assay [1] is 15 nM. The molecule further returned a hN2, inhibition of Luc activity at [166 nM] Mab in assay [2] of less than 10%.
